Measurements taken from patent US9730926B2, “Combination therapy using bispecific anti-c-Met/anti-EGFR antibody and c-Src inhibitor” (Samsung Electronics Co., Ltd., priority 2014, dated 2017).

Tests used:
Conditions in all cases: rank among the four antibodies huAbF46-H4-A1, -A2, -A3, -A5
Akt phosphorylation = Akt phosphorylation by the four affinity-matured antibodies; assay type: cell-based
Text: (§1) In the antibody, the hinge region, or the constant region and the hinge region, were substituted.

c-Met [1] = target: T1, c-Met (Homo sapiens, UniProt P08581); assay: c-Met degradation degree of the four affinity-matured antibodies; assay type: cell-based
T1 sequence (P08581 25-1390): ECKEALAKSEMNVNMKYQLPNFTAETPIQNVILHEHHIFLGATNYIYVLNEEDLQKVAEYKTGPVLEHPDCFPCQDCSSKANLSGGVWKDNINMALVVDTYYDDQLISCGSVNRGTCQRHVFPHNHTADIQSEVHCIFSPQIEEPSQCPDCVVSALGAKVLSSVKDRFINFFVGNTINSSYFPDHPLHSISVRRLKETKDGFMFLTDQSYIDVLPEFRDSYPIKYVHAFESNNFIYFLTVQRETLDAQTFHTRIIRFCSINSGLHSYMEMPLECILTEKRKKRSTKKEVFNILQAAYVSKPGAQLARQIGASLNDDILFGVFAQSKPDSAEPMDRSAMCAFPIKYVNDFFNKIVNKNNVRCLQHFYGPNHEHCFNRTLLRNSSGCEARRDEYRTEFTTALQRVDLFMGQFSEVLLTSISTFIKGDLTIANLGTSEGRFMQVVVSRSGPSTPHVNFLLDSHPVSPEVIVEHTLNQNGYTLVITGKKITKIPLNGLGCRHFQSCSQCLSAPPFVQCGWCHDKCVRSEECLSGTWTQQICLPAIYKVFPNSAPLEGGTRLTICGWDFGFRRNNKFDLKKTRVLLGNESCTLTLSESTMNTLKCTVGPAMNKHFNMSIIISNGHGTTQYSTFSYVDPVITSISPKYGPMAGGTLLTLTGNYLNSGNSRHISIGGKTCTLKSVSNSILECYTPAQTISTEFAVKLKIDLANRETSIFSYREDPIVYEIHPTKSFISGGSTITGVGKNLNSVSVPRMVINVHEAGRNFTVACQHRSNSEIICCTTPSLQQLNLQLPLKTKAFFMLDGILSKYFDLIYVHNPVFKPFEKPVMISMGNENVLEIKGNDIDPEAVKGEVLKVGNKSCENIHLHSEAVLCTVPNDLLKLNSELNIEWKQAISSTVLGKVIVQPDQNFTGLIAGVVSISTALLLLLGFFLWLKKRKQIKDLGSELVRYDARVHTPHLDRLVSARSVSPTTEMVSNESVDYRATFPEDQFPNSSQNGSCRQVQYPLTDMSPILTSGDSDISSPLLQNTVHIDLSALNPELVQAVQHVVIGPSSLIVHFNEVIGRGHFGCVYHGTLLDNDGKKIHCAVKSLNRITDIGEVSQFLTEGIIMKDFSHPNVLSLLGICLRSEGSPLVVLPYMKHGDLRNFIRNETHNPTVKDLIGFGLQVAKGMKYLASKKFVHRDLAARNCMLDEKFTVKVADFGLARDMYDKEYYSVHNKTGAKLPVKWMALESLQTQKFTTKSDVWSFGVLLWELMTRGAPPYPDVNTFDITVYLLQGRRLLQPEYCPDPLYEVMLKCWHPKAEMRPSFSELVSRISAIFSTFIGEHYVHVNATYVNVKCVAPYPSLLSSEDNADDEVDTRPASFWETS
Text: as §1

c-Met [2] = target: T1, c-Met; assay: Affinity for c-Met of the four affinity-matured antibodies; assay type: binding
Text: as §1

B1: huAbF46-H4-A1: affinity-matured humanized anti-c-Met antibody (L3-1 origin) (antibody)
heavy: EVQLVESGGGLVQPGGSLRLSCAASGFTFTDYYMSWVRQAPGKGLEWLGFIRNKANGYTTEYSASVKGRFTISRDNSKNTLYLQMNSLRAEDTAVYYCARDNWFAYWGQGTLVTVSSASTKGPSVFPLAPSSKSTSGGTAALGCLVKDYFPEPVTVSWNSGALTSGVHTFPAVLQSSGLYSLSSVVTVPSSSLGTQTYICNVNHKPSNTKVDKKVEPKSCDCH[human IgG1 Fc skipped]
light: DIQMTQSPSSLSASVGDRVTITCKSSQSLLASGNQNNYLAWHQQKPGKAPKMLIIWASTRVSGVPSRFSGSGSGTDFTLTISSLQPEDFATYYCQQSYSRPYTFGQGTKVEIKRTVAAPSVFIFPPSDEQLKSGTASVVCLLNNFYPREAKVQWKVDNALQSGNSQESVTEQDSKDSTYSLSSTLTLSKADYEKHKVYACEVTHQGLSSPVTKSFNRGEC
**Q.** How did the Akt phosphorylation (Akt phosphorylation) turn out when B1 was run?
**A.** lowest

**Q.** What about the c-Met degradation degree (c-Met [1]) of the same molecule?
**A.** lowest

**Q.** And the “affinity for c-Met” value (c-Met [2])?
**A.** highest
